In the supplement of paper PMC10126150:
Values marked as one replicate rest on one cluster of the flow cell; about a third of the high ones do not repeat.

Tested on: ATP
Test: switch fluorescence ratio, 500 uM ATP over buffer (Cy3 cluster intensity, sum of 5 cycles each) (fold (ratio)); higher = stronger signal-on switching upon ATP binding; sequences stand for … in TCGTCGGCAGCGTCAGATGTGTATAAGAGACAGTTTTTTTTTTTTTTTTTTTTTTTTT…TC
Conditions: aptamer strand: ATP DNA aptamer (quencher-CACCTGGGGGAGTATTGCGGAGGAAGG + anchor), 100 nM annealed; ATP concentration: 500 uM; one replicate
Method in brief: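 For every switch-domain sequence, the fluorescence ratio is the mean of per-cluster values, each being summed target-cycle Cy3 intensity over summed buffer-cycle Cy3 intensity. Clusters outside 100-1000 RFU were excluded. On a modified Illumina MiSeq flow-cell, the Cy3-labelled switching-strand clusters were annealed to 100 nM quencher-labelled ATP aptamer, imaged in selection buffer and then after 15 min with 500 uM ATP at 22 °C. Five such cycles were run, with NaOH stripping and re-annealing between them.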
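Further: ATP exposure 15 min at 22 °C before imaging.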

| Sequence | switch fluorescence ratio |
| --- | --- |
| TACGACCTGT | 1.05 |
| TGTTATGGTT | 1.01 |
| TTGTTGTTA | 0.957 |
| ACGTGTCGTG | 0.957 |
| GCTATGTTTT | 0.971 |
| TCTTATTGT | 0.997 |
| TTTCTGTGTG | 0.989 |
| ATCAGAGAGT | 0.989 |
| GCCCCAATAG | 3.4 |
| TCGATGAAGG | 0.964 |
| AGTGTAAG | 0.955 |
| TTCCAGGATA | 1.06 |
| TGACTTTTGC | 0.987 |
| TACGGAGAGG | 1.07 |
| TTGTCAAATC | 1.03 |
| TATGATCGGC | 1.03 |
| CATGTCGACC | 1 |
| CGACCGAGT | 1.06 |
| GGTATAGCCT | 0.958 |
| GTTCACGGTT | 1.04 |
| TCATTGCGTT | 0.955 |
| CGGCGGGCGG | 0.961 |
| AGGGTTGTTC | 1.01 |
| ATAGTTTATA | 0.986 |
| CCACAAAAA | 1.05 |

| Sequence | switch fluorescence ratio |
| --- | --- |
| TCCGGGCGGG | 1.01 |
| AGAGTAAGCT | 1 |
| GTCGGAAAG | 0.964 |
| GTGCTTTAAT | 1 |
| TGACATCGCT | 0.968 |
| TCTCTCCCAT | 1.36 |
| TTCACCATGA | 1.02 |
| CAGGGCGCCG | 0.989 |
| ACGTTATGTA | 1.07 |
| CGTTTTTCCA | 1 |
| GTGCCGAGGT | 1.04 |
| TTTCATCTGC | 0.944 |
| TATTCCAAGA | 1.01 |
| CCGGACCGAA | 1.07 |
| CGGTTGAGA | 0.974 |
| GCTAGCGAGC | 0.989 |
| GAGGTTCGCA | 1.06 |
| GTTGCAGCTA | 1.01 |
| CGAGACTGTA | 1.04 |
| ATCCGGTGCT | 1.1 |
| ATCTGAGGCT | 0.982 |
| TCTGTAAAGA | 1.07 |
| TCATAGTATC | 0.976 |
| ACGCACTTTC | 1.54 |
| CTGACCGACT | 2.13 |

| Sequence | switch fluorescence ratio |
| --- | --- |
| AGGCCAGGTC | 1.08 |
| CGGTTGATTA | 0.965 |
| TCTGGCGGGA | 1.02 |
| GTAAAAATAG | 1.42 |
| CGAAACAGAA | 0.999 |
| TAACCAGGTA | 1.12 |
| AATGCAGGAA | 1.02 |
| CCCCGAACGA | 1.21 |
| CATAAATGGC | 0.962 |
| GTAACAGATG | 0.943 |
| AAGCACATTT | 1.18 |
| GACAGTAGAA | 1.03 |
| TCTAACGCCA | 1.38 |
| CATAAAGGCC | 0.979 |
| AGCAGCTATT | 1.02 |
| GACAAGCAGT | 1.24 |
| CCGGTAATTG | 1.06 |
| CAATCTCGAG | 0.998 |
| TATACTAAGA | 1.01 |
| GAGACGGCCC | 1.05 |
| TAATGTCGGA | 0.96 |
| TATGAGATCA | 1 |
| CGGTAAGGAC | 1.02 |
| CCTAAGGAAT | 1.17 |
| GGTGCCAGGT | 1.05 |

| Sequence | switch fluorescence ratio |
| --- | --- |
| AGGATAGTCT | 1.06 |
| GGATTGAAAA | 1.03 |
| CATCACAAAG | 1.02 |
| ACGACGGGGC | 2.38 |
| TGGAGATGTC | 0.915 |
| TCTTTGGGCG | 1 |
| TAATCCTGCT | 0.95 |
| GGGGAGTCTA | 0.967 |
| CCGTAATGAG | 2.16 |
| GCCGTCATCT | 1.05 |
| TGAGAAAATA | 0.99 |
| AATTTAATTC | 0.959 |
| GTTGTTCTCA | 1.01 |
| GCCGACGTGA | 1.93 |
| CGTCTAGAAT | 0.987 |
| CAATAATTGG | 0.98 |
| AACCAGATAT | 0.997 |
| AATAATCGTT | 1.01 |
| AAGATTCGAG | 0.996 |
| TGTGACTGCT | 0.978 |
| CATCCACTTA | 1.23 |
| GTGAATCATT | 1.01 |
| TTGTTAGACA | 1.02 |
| CCTAGTGTGC | 1.17 |
| AGATGAGGAT | 0.99 |

| Sequence | switch fluorescence ratio |
| --- | --- |
| ACTAATTCTA | 1.01 |
| GAGTAATGAA | 1.02 |
| TCTTGAATAT | 0.976 |
| GAAGTGGTCA | 0.985 |
| CGTATGCGGT | 0.987 |
| GCATACTGTA | 1.12 |
| TCTGGACCCA | 1.03 |
| GGCCAGGGCG | 1 |
| CTTAAGACGA | 1.03 |
| TGAGATTTGG | 0.951 |
| GTATAAATCC | 1.01 |
| GTGATAGGTA | 1.01 |
| ATCATGCAAA | 1.02 |
| ACAGGAGGG | 0.973 |
| AAAGGCATCA | 1.05 |
| AGGGGGATCC | 1.02 |
| TTAAAACAA | 1.02 |
| TAATGTTAAT | 0.986 |
| CCGATGGAAG | 1.22 |
| CTTTGGTAAA | 1.01 |
| CTATATCGC | 1.02 |
| GGGGATCTCC | 1 |
| GTCTGGCAGC | 0.938 |
| TTCGGAGAAG | 1.06 |
| ATGTTCTTTA | 1.06 |

| Sequence | switch fluorescence ratio |
| --- | --- |
| ATTGCTTTAG | 1.01 |
| GTCATCATGC | 0.967 |
| AGATCGACAG | 1.04 |
| ACAGAGACAC | 1.06 |
| TGTCGGTGCG | 0.959 |
| GGACTATAGG | 0.92 |
| CTGAGGCGAG | 1.12 |
| CTCCATGAA | 1.13 |
| GATCACGTAA | 1.27 |
| TAATTAGATC | 0.997 |
| TCAGGTTTC | 0.991 |
| AAACCAGGGA | 1.08 |
| ACCGCGTCTA | 1.08 |
| AGGATTTGCG | 1 |
| CAGGCTTTC | 1.02 |
| CCGGGTTTCT | 1.12 |
| TACCACCGTG | 1.05 |
| CGTGACCGGT | 0.948 |
| GGTAATGTGG | 0.952 |
| TCTGGTACCG | 1.01 |
| GTGCGACTAG | 0.986 |
| TTGAGTGCAG | 1 |
| AGCTGTATGT | 0.96 |
| AGTTTGCAAT | 0.949 |
| TCATCGCAGC | 2.81 |

| Sequence | switch fluorescence ratio |
| --- | --- |
| CATACTGTCC | 1.08 |
| CCTGACAACA | 1.11 |
| TTCTGACGTT | 1.13 |
| GGCGACCGTC | 1.01 |
| CACCGAGGAT | 0.999 |
| GGGACCGTTG | 1.09 |
| TCGCGGTGCA | 1.06 |
| ATTGGAAGAT | 0.991 |
| TGTAATAAAA | 0.978 |
| GGATGAGAA | 1.01 |
| TAACTTTTGT | 0.958 |
| CTAAGGAGAA | 0.949 |
| GCTGATACCA | 0.976 |
| CACGCCGCAT | 1.83 |
| ACACAATGGT | 1.01 |
| AACAAGTGCG | 0.959 |
| TATTGAGCAC | 1.04 |
| CAGATAAGTC | 0.989 |
| CCAATGGTAA | 1.03 |
| GTCTCCATTG | 0.954 |
| CGAGATGATC | 1.06 |
| ACTAATGGGT | 1.03 |
| GTGGATTGTT | 0.973 |
| CCAGAGAAAA | 1 |
| TCGGTGGAAA | 1.06 |

| Sequence | switch fluorescence ratio |
| --- | --- |
| ATATTAAGGA | 0.984 |
| GACTTTTTTG | 0.991 |
| AAATTCACAT | 1.03 |
| TTCATCAGGC | 0.94 |
| ACGATTGGA | 0.995 |
| CTCGTTTCCC | 1.04 |
| ACGGGTTATA | 1.01 |
| AAGGATTGGA | 0.968 |
| TGTGGGCTTG | 0.979 |
| GCTGCTAGTT | 1.08 |
| GTGTGTCCAT | 1.05 |
| GCGTCGAGT | 1.01 |
| GTTGGTCCCG | 0.996 |
| TCTTCTGATA | 1.02 |
| GGAGGCGTCA | 1.03 |
| ATATTGCCGG | 1.04 |
| CCTGGGTGCC | 1.13 |
| GGGACCGCAG | 1.02 |
| AGCATATCCT | 1.12 |
| TAAGTCATCT | 1.02 |
| CGTGTGCCTA | 1.03 |
| CAGGTGTAAT | 1.03 |
| ATATAGAAGC | 1.01 |
| CGCTATTAAC | 3.12 |
| TCAGTGTACG | 1.02 |
